Experimental data published in the supplement of paper PMC10126150.
Sequences with one replicate were seen in a single cluster, so their values are uncertain.

Test system: ATP
Test: switch fluorescence ratio, 500 uM ATP over buffer (Cy3 cluster intensity, sum of 5 cycles each) (fold (ratio)); higher = stronger signal-on switching upon ATP binding; sequences stand for … in TCGTCGGCAGCGTCAGATGTGTATAAGAGACAGTTTTTTTTTTTTTTTTTTTTTTTTT…TC
Details: aptamer strand: ATP DNA aptamer (quencher-CACCTGGGGGAGTATTGCGGAGGAAGG + anchor), 100 nM annealed; ATP concentration: 500 uM; one replicate
How it was run: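 The fluorescence ratio divides summed target-cycle Cy3 intensity by summed buffer-cycle Cy3 intensity for each cluster and is averaged per switch-domain sequence. Cy3-labelled switching-strand clusters on a modified Illumina MiSeq flow-cell were annealed to 100 nM quencher-labelled ATP aptamer, then imaged in selection buffer and again after 15 min with 500 uM ATP at 22 °C. Five such cycles were run, with NaOH stripping and re-annealing between them, and clusters outside 100-1000 RFU were excluded.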
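Further: ATP exposure 15 min at 22 °C before imaging.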

Which switch fluorescence ratio does the source give for ATCTCCTGTG here?
The switch fluorescence ratio was 1.03.

How did the switch fluorescence ratio turn out when ATCTCTGCAG was run?
Its switch fluorescence ratio is 1.89.

ATCTCTGTTA was tested. Which switch fluorescence ratio did it give?
Its switch fluorescence ratio is 0.964.

How did the switch fluorescence ratio turn out when ATCTCTTCGT was run?
Its switch fluorescence ratio is 0.998.

ATCTGCACCC was tested. Which switch fluorescence ratio did it give?
Its switch fluorescence ratio is 1.2.

With ATCTGCGATT as the sequence, how does the switch fluorescence ratio read?
Its switch fluorescence ratio is 1.11.

ATCTGGGATT was tested. Which switch fluorescence ratio did it give?
Its switch fluorescence ratio is 1.03.

ATCTGGGGA was tested. Which switch fluorescence ratio did it give?
Its switch fluorescence ratio is 1.02.

ATCTGTTGAG was tested. Which switch fluorescence ratio did it give?
Its switch fluorescence ratio is 0.979.

ATCTTGGCCA was tested. Which switch fluorescence ratio did it give?
The switch fluorescence ratio was 0.964.

ATCTTGTACG was tested. Which switch fluorescence ratio did it give?
Its switch fluorescence ratio is 1.06.

For ATCTTTCATC, which switch fluorescence ratio is on record?
The switch fluorescence ratio was 1.05.

How did the switch fluorescence ratio turn out when ATCTTTCTTG was run?
Its switch fluorescence ratio is 0.989.

With ATCTTTTCTA as the sequence, how does the switch fluorescence ratio read?
The switch fluorescence ratio was 1.01.

Which switch fluorescence ratio does the source give for ATGAAAGTTT here?
The switch fluorescence ratio was 1.03.

Which switch fluorescence ratio does the source give for ATGAACACAT here?
Its switch fluorescence ratio is 1.02.

For ATGAACCCAG, which switch fluorescence ratio is on record?
Its switch fluorescence ratio is 2.51.

How did the switch fluorescence ratio turn out when ATGAAGCCTC was run?
The switch fluorescence ratio was 1.06.

Which switch fluorescence ratio does the source give for ATGAAGGCCC here?
The switch fluorescence ratio was 1.02.

For ATGAAGTCGT, which switch fluorescence ratio is on record?
The switch fluorescence ratio was 1.03.

For ATGAAGTTTG, which switch fluorescence ratio is on record?
The switch fluorescence ratio was 1.91.

For ATGAATAGGG, which switch fluorescence ratio is on record?
The switch fluorescence ratio was 0.955.

How did the switch fluorescence ratio turn out when ATGAATGGGA was run?
Its switch fluorescence ratio is 0.949.

Which switch fluorescence ratio does the source give for ATGACAATGA here?
The switch fluorescence ratio was 0.99.

How did the switch fluorescence ratio turn out when ATGACAGGAG was run?
The switch fluorescence ratio was 1.03.

How did the switch fluorescence ratio turn out when ATGACCAGCA was run?
The switch fluorescence ratio was 1.11.

With ATGACCTTTG as the sequence, how does the switch fluorescence ratio read?
Its switch fluorescence ratio is 0.993.

For ATGACGAGTT, which switch fluorescence ratio is on record?
The switch fluorescence ratio was 0.939.

For ATGACGGAAA, which switch fluorescence ratio is on record?
The switch fluorescence ratio was 1.07.

ATGAGAACC was tested. Which switch fluorescence ratio did it give?
The switch fluorescence ratio was 1.

For ATGAGAATTC, which switch fluorescence ratio is on record?
Its switch fluorescence ratio is 1.12.

ATGAGATTAC was tested. Which switch fluorescence ratio did it give?
The switch fluorescence ratio was 1.01.

ATGAGCAGG was tested. Which switch fluorescence ratio did it give?
The switch fluorescence ratio was 1.18.

With ATGAGCGCTA as the sequence, how does the switch fluorescence ratio read?
Its switch fluorescence ratio is 1.02.

Which switch fluorescence ratio does the source give for ATGAGGAACT here?
The switch fluorescence ratio was 0.967.

With ATGAGGATTC as the sequence, how does the switch fluorescence ratio read?
Its switch fluorescence ratio is 1.02.

With ATGAGGTTGA as the sequence, how does the switch fluorescence ratio read?
The switch fluorescence ratio was 0.988.

For ATGAGTATTC, which switch fluorescence ratio is on record?
Its switch fluorescence ratio is 0.973.

With ATGATAAAGC as the sequence, how does the switch fluorescence ratio read?
The switch fluorescence ratio was 0.97.

With ATGATACGTT as the sequence, how does the switch fluorescence ratio read?
The switch fluorescence ratio was 1.04.

With ATGATAGAAA as the sequence, how does the switch fluorescence ratio read?
The switch fluorescence ratio was 0.979.

With ATGATAGTTT as the sequence, how does the switch fluorescence ratio read?
Its switch fluorescence ratio is 1.03.

For ATGATCACC, which switch fluorescence ratio is on record?
The switch fluorescence ratio was 1.03.

ATGATCGAGG was tested. Which switch fluorescence ratio did it give?
Its switch fluorescence ratio is 1.01.

For ATGATCGTTT, which switch fluorescence ratio is on record?
Its switch fluorescence ratio is 0.946.

ATGATGCCG was tested. Which switch fluorescence ratio did it give?
The switch fluorescence ratio was 0.993.

Which switch fluorescence ratio does the source give for ATGATTCTCT here?
The switch fluorescence ratio was 1.02.

How did the switch fluorescence ratio turn out when ATGATTTGCC was run?
Its switch fluorescence ratio is 0.997.

ATGCAATGTA was tested. Which switch fluorescence ratio did it give?
Its switch fluorescence ratio is 1.05.

Which switch fluorescence ratio does the source give for ATGCACGGAG here?
The switch fluorescence ratio was 0.98.

How did the switch fluorescence ratio turn out when ATGCACTTTG was run?
Its switch fluorescence ratio is 1.04.

Which switch fluorescence ratio does the source give for ATGCAGCGTA here?
The switch fluorescence ratio was 1.01.

ATGCATCAGC was tested. Which switch fluorescence ratio did it give?
Its switch fluorescence ratio is 1.03.

With ATGCATGAAC as the sequence, how does the switch fluorescence ratio read?
Its switch fluorescence ratio is 1.02.

ATGCCAGTAA was tested. Which switch fluorescence ratio did it give?
The switch fluorescence ratio was 0.957.

Which switch fluorescence ratio does the source give for ATGCCCAACA here?
Its switch fluorescence ratio is 0.948.

With ATGCCCAGC as the sequence, how does the switch fluorescence ratio read?
The switch fluorescence ratio was 0.962.

ATGCCCGTGT was tested. Which switch fluorescence ratio did it give?
Its switch fluorescence ratio is 0.999.

Which switch fluorescence ratio does the source give for ATGCCTAACA here?
The switch fluorescence ratio was 0.945.

ATGCCTTCGA was tested. Which switch fluorescence ratio did it give?
The switch fluorescence ratio was 0.998.

With ATGCCTTGGT as the sequence, how does the switch fluorescence ratio read?
The switch fluorescence ratio was 1.01.

ATGCGAATAC was tested. Which switch fluorescence ratio did it give?
Its switch fluorescence ratio is 2.87.

For ATGCGAGA, which switch fluorescence ratio is on record?
The switch fluorescence ratio was 0.968.

ATGCGAGACG was tested. Which switch fluorescence ratio did it give?
The switch fluorescence ratio was 1.09.

How did the switch fluorescence ratio turn out when ATGCGCGCAC was run?
The switch fluorescence ratio was 1.01.

With ATGCGCTCG as the sequence, how does the switch fluorescence ratio read?
Its switch fluorescence ratio is 0.917.

With ATGCGCTGTG as the sequence, how does the switch fluorescence ratio read?
Its switch fluorescence ratio is 1.01.

Which switch fluorescence ratio does the source give for ATGCGGAACT here?
The switch fluorescence ratio was 0.978.

Which switch fluorescence ratio does the source give for ATGCGGCGTA here?
Its switch fluorescence ratio is 1.03.

ATGCGGGCCT was tested. Which switch fluorescence ratio did it give?
The switch fluorescence ratio was 1.02.

ATGCGGGCTG was tested. Which switch fluorescence ratio did it give?
The switch fluorescence ratio was 0.985.

For ATGCGGGGAC, which switch fluorescence ratio is on record?
Its switch fluorescence ratio is 1.04.

How did the switch fluorescence ratio turn out when ATGCGTACAG was run?
Its switch fluorescence ratio is 0.99.

ATGCGTGGAG was tested. Which switch fluorescence ratio did it give?
Its switch fluorescence ratio is 0.976.

Which switch fluorescence ratio does the source give for ATGCGTGTCG here?
Its switch fluorescence ratio is 1.02.

ATGCTATATT was tested. Which switch fluorescence ratio did it give?
The switch fluorescence ratio was 1.01.

For ATGCTCCGGT, which switch fluorescence ratio is on record?
Its switch fluorescence ratio is 1.04.

With ATGCTCCTAA as the sequence, how does the switch fluorescence ratio read?
Its switch fluorescence ratio is 1.05.

How did the switch fluorescence ratio turn out when ATGCTCGACT was run?
Its switch fluorescence ratio is 1.03.

Which switch fluorescence ratio does the source give for ATGCTCGGAT here?
The switch fluorescence ratio was 1.16.

ATGCTGCCGG was tested. Which switch fluorescence ratio did it give?
The switch fluorescence ratio was 0.963.

For ATGCTTTGT, which switch fluorescence ratio is on record?
The switch fluorescence ratio was 0.948.

With ATGGAAGATA as the sequence, how does the switch fluorescence ratio read?
Its switch fluorescence ratio is 1.05.

How did the switch fluorescence ratio turn out when ATGGAATTAG was run?
The switch fluorescence ratio was 1.03.

ATGGAGCGGC was tested. Which switch fluorescence ratio did it give?
The switch fluorescence ratio was 1.02.

For ATGGATGAGC, which switch fluorescence ratio is on record?
The switch fluorescence ratio was 1.02.

With ATGGATGATA as the sequence, how does the switch fluorescence ratio read?
Its switch fluorescence ratio is 0.98.

How did the switch fluorescence ratio turn out when ATGGCAGTAA was run?
The switch fluorescence ratio was 1.04.

With ATGGCATATC as the sequence, how does the switch fluorescence ratio read?
Its switch fluorescence ratio is 1.06.

For ATGGCGATGT, which switch fluorescence ratio is on record?
The switch fluorescence ratio was 1.01.

Which switch fluorescence ratio does the source give for ATGGCGTAGG here?
The switch fluorescence ratio was 1.03.

For ATGGCGTATG, which switch fluorescence ratio is on record?
The switch fluorescence ratio was 0.991.

For ATGGCGTGG, which switch fluorescence ratio is on record?
The switch fluorescence ratio was 0.984.

Which switch fluorescence ratio does the source give for ATGGCTTGTG here?
The switch fluorescence ratio was 0.996.

Which switch fluorescence ratio does the source give for ATGGGAAAGG here?
The switch fluorescence ratio was 0.99.

How did the switch fluorescence ratio turn out when ATGGGACATA was run?
The switch fluorescence ratio was 1.08.

How did the switch fluorescence ratio turn out when ATGGGAGGAG was run?
Its switch fluorescence ratio is 0.989.

Which switch fluorescence ratio does the source give for ATGGGATGGT here?
The switch fluorescence ratio was 1.02.

Which switch fluorescence ratio does the source give for ATGGGGCTAA here?
Its switch fluorescence ratio is 1.41.

With ATGGGGCTTA as the sequence, how does the switch fluorescence ratio read?
Its switch fluorescence ratio is 1.01.
